Measured values reported in the supplement of paper PMC11417369.
This is one part of the list.

What follows are sequences tested on PfSIP2 AP2 domain 1 (GST-tagged) (assay: gcPBM binding intensity (ln(normalized median fluorescence intensity)); higher = stronger DNA binding).
Summary of the method: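 DNA-binding domains from P. falciparum, fused to GST and produced in E. coli, were put on an Agilent 4 × 180k double-stranded probe array for 1 h in 1× PBS holding 1% milk, 0.2 mg/ml BSA, 0.5% salmon testes DNA and 0.03% Triton X-100. Probes were primer-extended, 36 bp long and drawn from intergenic genomic regions, with negative controls included. After Alexa488 anti-GST antibody detection and a 488 nm scan, binding intensity was set as the highest Masliner-normalised natural-log median intensity across replicate spots of either probe orientation.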

Row | Sequence | gcPBM binding intensity (ln)
1 | TCAAACCAGTTGATGTGTACACATATAGTAATAATT [XGTACX_site6014] | 7.22
2 | TTTATTTGATGAACATGTACAAAAAAACAAAGAACA [XGTACX_site823] | 7.36
3 | TGATATTTTATTATTAAAATATATACATATATATAT [CACACA_negctrl_site1456] | 8.91
4 | ATAAAAATAAAATGGACACACATATATACCTATTTG [CACACA_site5761] | 6.92
5 | AAGAAAAAAAAAAAAAAAGATACTTTTTTAAAACTA [TGCATGCA_negctrl_site13] | 6.6
6 | TTGCACAGATTAATCAAAAATTTTAAACCAAATATA [XGTACX_negctrl_site38] | 7.08
7 | TATTTACACAAAATAAAATATATTATATATATATAT [TGCATGCA_negctrl_site381] | 8.65
8 | AGAATAGAATAAAAAACACACATTTACAACATTATT [CACACA_site3894] | 6.82
9 | TATTTATACATAGGTGGTACTACTTTAAACAAAAAA [XGTACX_site5062] | 7.23
10 | TATATGGAGAGATATGCACACTGTATGAATGCCCCC [CACACA_site8853] | 9.32
11 | AAATAAATAATATTCACACATAAAAAAAATGGAGTT [CACACA_site4525] | 6.77
12 | GTGCTTATTTATACATGTACAAATGATAAGTTTGTA [XGTACX_site169] | 7.76
13 | GAAATAAATATATATGCATGTACTTTAATATTATTA [TGCATGCA_site904] | 7.12
14 | TAAATATATTCATAAAGTACAAAGCAAAATTGTCTA [XGTACX_site7274] | 6.83
15 | TTTTTTCTTTTATGTGAAATGTAATATTGTTATATA [GTGCAC_negctrl_site715] | 6.97
16 | AGGTGATTGATATATACACACATACCTATATTTATA [CACACA_site7348] | 6.88
17 | TGTTTATTTAATAATATTTTTTTTTTTATTATATTA [XGTACX_negctrl_site56] | 6.65
18 | TTATTAAAATATTCTAGTACATATAAAAGGAGAACA [XGTACX_site4374] | 7.55
19 | ATATATTATTTTAAATGTACTCATAATAGAAATGTC [XGTACX_site40] | 7.32
20 | ATATAAAGAAAAGGAACACACAAATATATATATATA [CACACA_site463] | 9.29
21 | CACACAGGTAAAAAGGTGCAGTTGAAATATTCCTCA [GTGCAC_site9730] | 11.1
22 | AAATAAAAGGTTGAGAGTACATTTTTGTGTATGTAT [XGTACX_site5547] | 7.07
23 | AGCTCTCAAAATTATTCACACGTGTCCTGTTATATA [CACACA_site5415] | 7.19
24 | ATATTTCATTAATGAACACACAAAGAGGTATATAAA [CACACA_site1519] | 7.18
